Experimental data: PubChem BioAssay AID624417 (National Center for Advancing Translational Sciences (NCATS), 2012)
The campaign covered roughly 410,000 compounds. About 6,400 (1.6%) were called active. Inconclusive means that the source gave no clear call. Such entries were picked first, then a sample of the others. Calls follow the shape of the dose curve; as a rule, active = well fitted inhibition curve with a large enough effect; inconclusive = small, poorly fitted or top-dose-only effect; inactive = no such curve, though single readings can be large or run the other way. Potencies of inconclusive entries are left out as doubtful fits.

What follows are compounds tested against Glucagon-like peptide 1 receptor (Homo sapiens) (UniProt P43220) (assay: qHTS of GLP-1 Receptor Inverse Agonists (Inhibition Mode)). Conditions: HEK293 GLP-1R CRE-luciferase, luminescence, 24 h, GLP-1R form is constitutively active; series mostly up to 38.3 µM.
Summary of the method: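 Inverse agonists were sought by their lowering of basal cAMP reporter luciferase output in HEK293 cells stably carrying constitutively active human GLP-1R, after 24 h compound treatment.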
Also: nearly all actives have a fitted effect of over 55% in size.
Potency is read from the fitted curve at half-maximal effect; tags tell the direction and shape of the fitted curve.

Sequence of UniProt P43220 (P43220 whole entry, looked up): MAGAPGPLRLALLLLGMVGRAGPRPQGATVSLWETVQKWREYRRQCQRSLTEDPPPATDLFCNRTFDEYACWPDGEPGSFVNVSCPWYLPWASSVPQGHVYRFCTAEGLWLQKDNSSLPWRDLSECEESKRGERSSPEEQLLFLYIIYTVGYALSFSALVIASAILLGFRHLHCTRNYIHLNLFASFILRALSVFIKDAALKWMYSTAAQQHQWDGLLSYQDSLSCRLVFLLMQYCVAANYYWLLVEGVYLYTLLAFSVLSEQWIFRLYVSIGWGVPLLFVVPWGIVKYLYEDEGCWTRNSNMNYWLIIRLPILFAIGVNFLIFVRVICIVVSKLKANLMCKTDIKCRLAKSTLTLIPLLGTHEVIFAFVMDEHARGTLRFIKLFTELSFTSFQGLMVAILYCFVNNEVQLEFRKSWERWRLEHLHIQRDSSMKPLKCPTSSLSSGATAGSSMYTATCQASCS

SMILES	Potency
COc1ccc(CN(C)CC(=O)Nc2ccc(SC(F)F)cc2)cc1OC	inconclusive [inhibitor, single point]
CC1=C(C(=O)Nc2nc3ccccc3s2)C(c2ccco2)C(C#N)=C(SCC(=O)NC2CCCCC2)N1 (centres undefined)	inconclusive [inhibitor, partial curve, poor fit]
CCN(CC)c1ccc(/C=N/Nc2nc(C)cc(=O)[nH]2)c(O)c1	inconclusive [inhibitor, full curve, poor fit]
O=C(NCCc1ccccc1)c1oc2ccccc2c1COc1ccccc1	active: 3.16 µM
NCC/C=C1/c2ccccc2CSc2ccccc21	active: 3.16 µM
Fc1ccc(CN(Cc2ccccc2)C(c2cccs2)c2nnnn2C2CCCCC2)cc1 (centres undefined)	inconclusive [inhibitor, partial curve, poor fit]
COc1ccc(C(=O)NC(C)CCc2ccccc2)c(OC)c1 (centres undefined)	inconclusive [inhibitor, single point]
O=C(NCCc1ccccc1Cl)c1ccc2c(c1)nc1n2CCCCC1	active: 12.6 µM
O=C(Cc1ccc(Br)cc1)NC1CCCc2ccccc21 (centres undefined)	inconclusive [inhibitor, partial curve, poor fit]
CC12CC3CC(C)(C1)CC(CN)(C3)C2	inconclusive [inhibitor, partial curve, poor fit]
Cc1ccc(C)c(Cn2c(C3CC(=O)N(c4ccccc4C)C3)nc3ccccc32)c1 (centres undefined)	inconclusive [inhibitor, partial curve, poor fit]
O=C1c2ccccc2C(=O)N1c1cccnc1	inactive
Cc1ccc(/C=N/NC(=O)Cc2ccc(Cl)cc2)c(O)c1	inconclusive [inhibitor, partial curve, poor fit]
CCCSc1ncc(Cl)c(C(=O)Nc2c(C(=O)Nc3ccc(C)cc3)oc3ccccc23)n1	inactive
COc1cc(/C=C/C(=O)OCC(=O)Nc2ccc3[nH]c(=O)[nH]c3c2)ccc1OC(F)F	inactive
O=c1c2ccc(F)cc2sn1-c1ccccc1	inconclusive [inhibitor, single point]
COc1cc(C)cc2oc(=O)c(CC(=O)NCc3cccc(Cl)c3)c(C)c12	inactive
O=C(NC(=S)Nc1cccc(S(=O)(=O)NC2=NCCC2)c1)c1cc(-c2ccco2)nc2ccccc12	inconclusive [inhibitor, partial curve]
COc1cc2c(=O)n(CC3CCCO3)c(=O)n(CC(=O)Nc3cccc(Cl)c3)c2cc1OC (centres undefined)	inconclusive [inhibitor, single point]
CCCCn1nnnc1C(c1cc2ccccc2o1)N1CCN(c2cc(C)nc3ccccc23)CC1 (centres undefined)	inconclusive [inhibitor, partial curve, poor fit]
Cc1cc(SCC(=O)Nc2ccccc2)n2ncc(-c3ccccc3)c2n1	inconclusive [inhibitor, partial curve]
CCN(CC)c1ccc(NS(=O)(=O)c2cc3[nH]c(=O)c(=O)[nH]c3cc2C)c(C)c1	inactive

SMILES	Potency
Cc1ccc(S(=O)(=O)NCCCCCC(=O)Nc2cccc(C)c2)cc1	inconclusive [inhibitor, single point]
O=C(c1ccc(COc2ccc(Cl)cc2)o1)N1CCN(Cc2ccc3c(c2)OCO3)CC1	inconclusive [inhibitor, partial curve, poor fit]
CCOc1ccc(-n2nc3ccc(NC(=O)COc4ccc(OC)cc4)cc3n2)cc1	inactive
c1cc2c(cc1C1=NNC(=NC3CC3)SC1)OCCO2	inconclusive [inhibitor, full curve, poor fit]
O=C(O)c1c2c(nc3ccccc13)/C(=C/c1ccc(O)cc1)CC2	inconclusive [inhibitor, full curve, poor fit]
COc1ccc(-n2c(SCC(=O)Nc3sc4c(c3C#N)CCCC4)nnc2-c2ccccc2OC)cc1	inconclusive [inhibitor, partial curve, poor fit]
O=C(c1cc(COc2c(F)cccc2F)on1)N1CCC(c2ccccc2Cl)C1 (centres undefined)	inconclusive [inhibitor, single point]
Cc1ccc(NC(=O)CSc2nc(-c3ccco3)cc(C(F)(F)F)n2)cc1	inconclusive [inhibitor, full curve, poor fit]
O=C(c1cccs1)c1sccc1Cc1ccccc1	inconclusive [inhibitor, single point]
COC(=O)c1ccc2nc(C3CCCCC3)c(Cc3cccc(Cl)c3)n2c1	inconclusive [inhibitor, partial curve, poor fit]
CCOc1cccc(/C=N/NS(=O)(=O)c2ccc(C)c([N+](=O)[O-])c2)c1O	inactive
Cc1ccc(-c2nc(C)c(CCNS(=O)(=O)c3ccc(F)c(C(F)(F)F)c3)s2)cc1	inconclusive [inhibitor, partial curve, poor fit]
C=C1C(=O)OC2C1C(OC(=O)C(C)=CC)CC(=C)C1C(O)C3OC3(C)C21O (centres undefined)	inconclusive [inhibitor, single point]
CCOC(=O)c1c(C)[nH]c(CCC(=O)NCc2ccc(N(C)C)cc2)c1C	inactive
O=c1cc(-c2ccccc2)n2c(SCc3ccc(F)cc3)nnc2[nH]1	inactive
CC1CC(C)CN(C(=O)c2ccc(S(=O)(=O)N3CC(C)CC(C)C3)cc2)C1 (centres undefined)	inconclusive [inhibitor, single point]
COc1ccc(S(=O)(=O)NCC2CCCN(Cc3cccc(C(C)=O)c3)C2)cc1 (centres undefined)	inconclusive [inhibitor, single point]
Cc1cnc(=O)[nH]c1SCc1ccc(C(F)(F)F)cc1	inconclusive [inhibitor, single point]
C=CCn1c(CNc2ccccc2)nnc1SCC(=O)N/N=C/c1ccccc1O	inconclusive [inhibitor, partial curve, poor fit]
COCCN=C1N[C@@H](c2ccc(Br)cc2)C(C(=O)OC)=C(C)N1Cc1ccccc1	inconclusive [inhibitor, partial curve, poor fit]
CSCC[C@H](NC(=O)OC(C)(C)C)c1nnc(SCc2cccc(F)c2)o1	inconclusive [inhibitor, partial curve, poor fit]
CC1CCN(c2ccccc2NC(=O)c2ccc(Br)o2)CC1	inconclusive [inhibitor, single point]

SMILES	Potency
COc1cc(C(C[N+](=O)[O-])c2c(C)cc3ccccn23)ccc1O (centres undefined)	inconclusive [inhibitor, partial curve, poor fit]
COc1ccc2cc([C@H](C)C(=O)OCc3cn(CC(=O)c4ccc(O)cc4)nn3)ccc2c1	inconclusive [inhibitor, single point]
CCOC(=O)c1cc(-c2ccccc2)sc1NC(=O)C(C)N1C(=O)c2ccccc2C1=O (centres undefined)	inconclusive [inhibitor, single point]
Cc1ccc(C(=O)Nc2ccccc2SCC2CSc3nc4ccccc4c(=O)n32)cc1 (centres undefined)	inconclusive [inhibitor, full curve, poor fit]
COc1cc(C=O)ccc1OCCOCCOc1c(C)cc(Cl)cc1Cl	inconclusive [inhibitor, single point]
O=C(CN1CCN(c2ccccc2)CC1)Nc1ccccc1Sc1ccccc1	inconclusive [inhibitor, partial curve, poor fit]
Fc1ccc(CSc2nnc(Cc3sc(-c4ccccc4)nc3-c3ccccc3)o2)cc1	inactive
Cc1ccccc1N1CCN(CCN2C(=O)CC(=C3c4ccccc4-c4ccccc43)C2=O)CC1	inactive
COc1cccc(N2CCN(C(=O)Cn3c(-c4cccs4)cc4ccccc43)CC2)c1	inconclusive [inhibitor, partial curve, poor fit]
Cc1cc(C(c2ccc(O)cc2)c2cc(C)c(O)cc2C)c(C)cc1O	inconclusive [inhibitor, single point]
Cc1csc(NC(=O)CSc2nnc(NC(=O)NC(C)(C)C)s2)n1	inconclusive [inhibitor, partial curve, poor fit]
CCOC(=O)C1CCN(C(=O)COC(=O)CN(C)S(=O)(=O)c2ccc(NC(C)=O)cc2)CC1	inactive
COc1cccc(C(NC(C)=O)c2nc(-c3cccc(C(=O)O)c3)cs2)c1 (centres undefined)	inactive
COc1cccc(NC(=O)C2(C)CCN2C(=O)Cc2ccc(C(C)C)cc2)c1 (centres undefined)	inconclusive [inhibitor, partial curve, poor fit]
C=CCNc1nc(-c2ccccc2)c(C(=O)OCC)cc1C#N	active: 5.01 µM
CC1(C(=O)Nc2cccc3cccnc23)CCN1Cc1ccccc1OC(F)F (centres undefined)	inconclusive [inhibitor, partial curve]
Cc1nnc(N2CCCC(C(=O)NCCc3ccc(Cl)cc3)C2)c2nn(-c3ccccc3)c(C)c12 (centres undefined)	inactive
Cc1ccccc1C(=O)Nc1cccc(NC(=O)c2ccc(-c3ccc(Br)cc3)o2)c1	inactive
CCc1nc2ccc(C(=O)N3CCN(S(=O)(=O)CC)CC3)cn2c1N(CCC(C)C)CCN(C)C	inactive
Cc1ccc(C)c(S(=O)(=O)N2CCCC2CNC(=O)C(=O)NCCc2ccco2)c1 (centres undefined)	inconclusive [inhibitor, partial curve]
